Common to all, as to assay: Primary Screen for Target Class Profiling of Small Molecule Inhibitors of Methyltransferases
Test [1] addresses Glycine N-methyltransferase (Homo sapiens) (UniProt Q14749). The note with it: purified enzyme, MTase-Glo SAH luminescence; measured here: GNMT inhibition; at 40 µM; stronger effect = lower value. An outline of the steps:
(§1)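 Each enzyme was assayed with SAM and its substrate. SAH formation detected by MTase-Glo luminescence; single-point 40 uM screen[…].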

The target of test [2] is Guanidinoacetate N-methyltransferase (Homo sapiens) (UniProt Q14353). The note with it: purified enzyme, MTase-Glo SAH luminescence; measured here: GAMT inhibition; at 40 µM; stronger effect = lower value. An outline of the steps: as §1
The target of test [3] is Histamine N-methyltransferase (Homo sapiens) (UniProt P50135). The note with it: purified enzyme, MTase-Glo SAH luminescence; measured here: HNMT inhibition; at 40 µM; stronger effect = lower value. An outline of the steps: as §1
The target in test [4] is Nicotinamide N-methyltransferase (Homo sapiens) (UniProt P40261). The note with it: purified enzyme, MTase-Glo SAH luminescence; measured here: NNMT inhibition; at 40 µM; stronger effect = lower value. The procedure, abridged: as §1
In test [5] the target is Phenylethanolamine N-methyltransferase (Homo sapiens) (UniProt P11086). The note with it: purified enzyme, MTase-Glo SAH luminescence; measured here: PNMT inhibition; at 40 µM; stronger effect = lower value. An outline of the steps: as §1

“And” between values parts separate entries of the source, which are not always exact repeats. Identical values can stand only once. The list shows a part of the results. These are further read-outs of the screen, such as a control signal, another cell line or another target. No call is given for them.

This note sets out measurements from PubChem BioAssay AID1745853 (National Center for Advancing Translational Sciences (NCATS), 2022).
% is set by controls: 0 for no effect and ±100 for the full control effect.

As to `C=Cc1ccc(Cn2nc3n(C(C)C)c(=O)c4ccc(C(=O)NCC(C)C)cc4n3c2=O)cc1`, the activity change, negative = inhibition in test [1] is -2.42%; in test [2], 0.41%; in test [3] it was -3.5%; in test [4], -3.75%; in test [5] it was -2.53%.

Regarding `COCc1noc([C@@H]2CC(F)(F)CN2C(=O)c2cnc(C)cn2)n1`, the activity change, negative = inhibition in test [1] is -3.05%; in test [2] it was -2.86%; in test [3] it was 0.718%; in test [4], -9.85%; in test [5], -3.76%.

In the case of `CNC(=O)[C@@H](C1CC1)N1CCC[C@H]1C(=O)N1CCOCC1`, the activity change, negative = inhibition in test [1] is 0.019%; in test [2], -3.3%; in test [3], 0.711%; in test [4], 1.67%; in test [5], 0.63%.

With `COc1ccc(-c2nn(-c3ccccc3C)cc2CN2CCCN(C)CC2)cc1F`, the activity change, negative = inhibition in test [1] was -8.38%; in test [2] it was -10.2%; in test [3], -13.4%; in test [4] it was -19.3%; in test [5] it was -10.6%.

Consider `CCN1CCC[C@@H]1CNC(=O)c1ccc2c(c1)NC(=O)c1cccc(C)c1S2`, for which the activity change, negative = inhibition in test [1] is -4.58%; in test [2], 9.32%; in test [3], -49.1%; in test [4] it was -20.6%; in test [5], -5.89%.

As for `CC1OC(OC2C(O)C(OC3CCC4(C)C(CCC5(C)C4CC=C4C6CC(C)(COC7OC(CO)C(O)C(O)C7O)CC(O)C6(C)CCC45C)C3(C)C)OC(C(=O)O)C2O)C(O)C(O)C1OC1OCC(O)C(O)C1O` (stereo not given), the activity change, negative = inhibition was -3.74% in test [1]; -8.99% in test [2]; 6.92% in test [3]; -20.6% in test [4]; 3.18% in test [5].

Regarding `CCC(C)NC(=O)c1ccc2c(=O)n(CC(C)C)c3n[nH]c(=O)n3c2c1` (stereo not given), the activity change, negative = inhibition in test [1] was -5.83%; in test [2], 0%; in test [3], 4.52%; in test [4], -4.06%; in test [5], -7.51%.

Consider `CNC(=O)C(C)(C)N1CCC[C@H]1C(=O)NCc1ccccc1`, for which the activity change, negative = inhibition in test [1] was -0.558%; in test [2] it was -3.34%; in test [3] it was 1.78%; in test [4] it was -4.19%; in test [5], -4.9%.

For `CCCCc1nn(CC(=O)N2CCSCC2)c(=O)n1CCc1ccccc1`, the activity change, negative = inhibition is -6.94% in test [1]; -13% in test [2]; -3.86% in test [3]; -18.7% in test [4]; -2.64% in test [5].

As for `CC(=O)NC1=NN(C(C)=O)C(C)(c2ccccc2)S1` (stereo not given), the activity change, negative = inhibition was 1.9% in test [1]; 3.27% in test [2]; 12.2% in test [3]; -13.2% in test [4]; 5.22% in test [5].

Consider `NC(Cc1ccc(Cl)cc1)C(=O)O` (stereo not given), for which the activity change, negative = inhibition in test [1] was 1.09%; in test [2] it was 9.57%; in test [3] it was 4.79%; in test [4], -1.26%; in test [5], 10.1%.

Regarding `O=C(Cc1ccsc1)N1CCC2(CC1)N=C(c1cccc(Br)c1)NO2`, the activity change, negative = inhibition in test [1] is -2.92%; in test [2], -1.6%; in test [3] it was -1.32%; in test [4], 6.76%; in test [5] it was -0.161%.

Take `Cc1cc(C(C)(C)C)c(O)c(C)c1CC1=NCCN1`: the activity change, negative = inhibition in test [1] is 6.84% and -1.4%; in test [2], 5.86% and 9.36%; in test [3] it was -0.68% and 1.89%; in test [4] it was -7.34% and -5.5%; in test [5], 0.224% and 2.95%.

As to `CC(C)CCN1C(=O)c2cc3sccc3n2CC1(C)C(=O)NC1CCCC(C)C1C` (stereo not given), the activity change, negative = inhibition in test [1] is -2.07%; in test [2] it was 4.27%; in test [3], 0.27%; in test [4] it was -1.56%; in test [5] it was -2.91%.

Regarding `CC(CN1C(=O)c2cc(-c3ccco3)nn2CC1(C)C(=O)NC1CCCCCC1)c1ccccc1` (stereo not given), the activity change, negative = inhibition in test [1] is -0.421%; in test [2] it was -2.3%; in test [3] it was 3.89%; in test [4], -9.15%; in test [5], -3.94%.

Take `COc1ccccc1CNC(=O)CCc1nnc2n(Cc3ccc(F)cc3)c(=O)c3ccccc3n12`: the activity change, negative = inhibition in test [1] was -11%; in test [2] it was 0%; in test [3], 3.73%; in test [4] it was 4.45%; in test [5], 0.408%.

Take `COc1cccc(Cn2nc3n(Cc4ccc(C)cc4)c(=O)c4ccc(C(=O)NC(C)C)cc4n3c2=O)c1`: the activity change, negative = inhibition was 8.13% in test [1]; 2.49% in test [2]; 13.2% in test [3]; 8.31% in test [4]; 9.46% in test [5].

Take `O=C(CCc1nnc2n(Cc3ccc(Cl)cc3)c(=O)c3ccccc3n12)NCCCN1CCOCC1`: the activity change, negative = inhibition in test [1] was -6.66%; in test [2], 0.191%; in test [3], -7.03%; in test [4], 1.04%; in test [5], -3.36%.

With `CN(C)CCCN1c2ccccc2Sc2ccccc21`, the activity change, negative = inhibition in test [1] was 5.83%; in test [2], 6.32%; in test [3] it was 5.89%; in test [4], -13.8%; in test [5], -6.48%.
